Consider 40 sequences from the supplement of paper PMC10338343.

± gives the standard deviation. The list shows a part of the results, in another mix than the full data. A value given as a limit tells only on which side of the number the result lay.

The assay deals with MIWI (PIWIL1) piRISC loaded with piRNA #1 (30 nt). Put plainly: pre-steady-state target cleavage rate (min^-1); MIWI and MILI are mouse PIWI proteins and EfPiwi is from a freshwater sponge; tags in brackets are library labels; higher = faster piRNA-guided slicing of the target. The following applies: guide: piRNA #1 5'p-UGAGGUAGUAGGUUGUAUAGUAUCCAGAGG; auxiliary factor: 500 nM mouse GTSF1. Summed up: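 A transcribed, DNA-blocked target RNA library (0.1 nM) and 1 nM active affinity-purified piRISC bearing one synthetic guide were incubated in HEPES–potassium acetate buffer at 33 °C for 0–8 or 0–960 min, either with or without 500 nM GTSF1 partner protein. Uncleaved targets were sequenced, normalised to depth and to weakly complementary targets, and pooled over three trials, with k3 capped at 0.0001 min^-1. The pre-steady-state cleavage rate was derived with a burst-and-steady-state fit.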
In the case of GGUCUGGAUACUAAACUACCUACUACCUCA, the “pre-steady-state target cleavage rate” value was determined as 1.24 ± 0.11.
As for GGAGACCAUACUAUACAACCUACAACCUGA, the figure is 0.262 ± 0.047; as for GCUCAGGAUACUAUACAACCUACUACCACA, 1.75 ± 0.1.
In the case of CGUCUGGAUACUAUUCAACCUACUACCUCA, the “pre-steady-state target cleavage rate” value came to 1.87 ± 0.09.
Take GCUCUGCAUACUAAACAACCUACUACCUCA: the “pre-steady-state target cleavage rate” value was determined as 1.75 ± 0.12.
With GGAGACCAUACUAUACAACGUAGUACCUCA, the “pre-steady-state target cleavage rate” value is 0.123 ± 0.018.
As to GGUCUCGAUACUAUACAACCUAGUACCUCA, the “pre-steady-state target cleavage rate” value is 0.692 ± 0.069.
Turning to GGACAGGAUACUAUACAACCUACUACCUGA, the “pre-steady-state target cleavage rate” value was found to be 0.571 ± 0.098.
GGAGACCUUACAAUACAACCUACUACCUCA: the “pre-steady-state target cleavage rate” value is 0.602 ± 0.081.
Consider CCUCUGGAUACUAUACAACCAACUAGCUCA, for which the “pre-steady-state target cleavage rate” value was found to be 0.13 ± 0.021.
As for GGUCUGGAUACUUUACAACCUUCUACCUCA, the figure is 0.529 ± 0.04.
For GGAGACCUAUCAAUACAUCCUACUACCUCA, the “pre-steady-state target cleavage rate” value amounted to 0.0166 ± 0.0069.
As for GGAGACGAUACUAUACAACCUAUCUACCUCA, the figure is 0.362 ± 0.03; as for GGAGACCUAUCUCAUACAACCUACUACCUCA, 0.086 ± 0.018.
On to GGUCUGGAUACUAUACAACGAUCUACCUCA, for which the “pre-steady-state target cleavage rate” value was below 0.0001.
As for GGAGACCAUACUAUACAACCUACCACCUCA, the figure is 0.897 ± 0.049; as for GGUCUGCAUUCUAUACAACCUACUACCUCA, 1.51 ± 0.11.
GGUCUGGACUACUAUACAACCUACUACCUCA: the “pre-steady-state target cleavage rate” value stood at 1.63 ± 0.089.
For GGUGUGGAUACUAUACAACCUACUACGUCA, the “pre-steady-state target cleavage rate” value was determined as 0.535 ± 0.063.
The figure for GGUCUGGAUACUAUACAACCUACUAACUCA is 0.115 ± 0.018.
Take GGAGACCAUACUAUACAACGUACUACCUGA: the “pre-steady-state target cleavage rate” value turned out to be 0.334 ± 0.041.
The figure for GGAGACCUAUGUAUACAACCUACUACCUACA is 0.0758 ± 0.0088; for GGAGACGAUACUAAUCAACCUACUACCUCA it is 1.07 ± 0.075.
With GGAGUGGAUAGUAUACAACCUACUAGCUCA, the “pre-steady-state target cleavage rate” value worked out at 0.0218 ± 0.0063.
GGACUGGAUACUAUACAACCUACUACCCCA: the “pre-steady-state target cleavage rate” value came out at 0.494 ± 0.086.
As to GGAGUGGAUACUAUACAACCUACUACCGUCA, the “pre-steady-state target cleavage rate” value worked out at 0.0556 ± 0.0087.
In the case of GGAGACCUAUCUAUACAACCUAGCUACCUCA, the “pre-steady-state target cleavage rate” value is 0.013 ± 0.0034.
The figure for CCUCUGGAUACAAUACAACGUACUACCUCA is 0.889 ± 0.061.
For the sequence GGAGAGGAUUCUAUACAACCUACUACCACA, the “pre-steady-state target cleavage rate” value was 0.665 ± 0.047.
For the sequence GGAGACCAUACUUUACAACCUACUAGCUCA, the “pre-steady-state target cleavage rate” value was determined as 0.285 ± 0.027.
For GGAGUGGAUACUAUACAAGCUUCUACCUCA, the “pre-steady-state target cleavage rate” value stood at 0.152 ± 0.013.
Take GGAGACCUAUGUAUACAAGCUACUACCUGA: the “pre-steady-state target cleavage rate” value amounted to 0.0211 ± 0.0044.
For GGAGACGUUACUAUACAACCUAGUACCUCA, the “pre-steady-state target cleavage rate” value was 0.451 ± 0.031.
As for GGAGACGAAACUAUUCAACCUACUACCUCA, the “pre-steady-state target cleavage rate” value is 1.08 ± 0.076.
CCUCUGGAUACUAUACAACCUACUACCACA: the “pre-steady-state target cleavage rate” value is 1.95 ± 0.14.
For GCUCUGGAUACUAUAGCAACCUACUACCUCA, the “pre-steady-state target cleavage rate” value was 1.22 ± 0.12.
As for GGAGACCUAACUAUAGAACCAACUACCUCA, the “pre-steady-state target cleavage rate” value was determined as 0.00608 ± 0.0017.
GGACUGGAUUCAAUACAACCUACUACCUCA: the “pre-steady-state target cleavage rate” value stood at 1.13 ± 0.12.
For GGAGUGGAUACUAAACAACCAACUACCUCA, the “pre-steady-state target cleavage rate” value worked out at 0.1 ± 0.011.
The figure for CCUCUGGAUACUAUACAACCUACAACGUCA is 0.553 ± 0.061.
